Out of some 310,000 compounds screened, about 2,200 (0.71%) showed an effect of 50% or more. The effect is printed as a negative number. This is one part of the list.

This experiment deals with human ether-à-go-go-related gene (hERG) potassium channel (human, UniProt Q12809). Kind of experiment: primary screen, population patch clamp on CHO cells stably expressing hERG.
Sequence of human ether-à-go-go-related gene (hERG) potassium channel (Q12809 whole entry, looked up): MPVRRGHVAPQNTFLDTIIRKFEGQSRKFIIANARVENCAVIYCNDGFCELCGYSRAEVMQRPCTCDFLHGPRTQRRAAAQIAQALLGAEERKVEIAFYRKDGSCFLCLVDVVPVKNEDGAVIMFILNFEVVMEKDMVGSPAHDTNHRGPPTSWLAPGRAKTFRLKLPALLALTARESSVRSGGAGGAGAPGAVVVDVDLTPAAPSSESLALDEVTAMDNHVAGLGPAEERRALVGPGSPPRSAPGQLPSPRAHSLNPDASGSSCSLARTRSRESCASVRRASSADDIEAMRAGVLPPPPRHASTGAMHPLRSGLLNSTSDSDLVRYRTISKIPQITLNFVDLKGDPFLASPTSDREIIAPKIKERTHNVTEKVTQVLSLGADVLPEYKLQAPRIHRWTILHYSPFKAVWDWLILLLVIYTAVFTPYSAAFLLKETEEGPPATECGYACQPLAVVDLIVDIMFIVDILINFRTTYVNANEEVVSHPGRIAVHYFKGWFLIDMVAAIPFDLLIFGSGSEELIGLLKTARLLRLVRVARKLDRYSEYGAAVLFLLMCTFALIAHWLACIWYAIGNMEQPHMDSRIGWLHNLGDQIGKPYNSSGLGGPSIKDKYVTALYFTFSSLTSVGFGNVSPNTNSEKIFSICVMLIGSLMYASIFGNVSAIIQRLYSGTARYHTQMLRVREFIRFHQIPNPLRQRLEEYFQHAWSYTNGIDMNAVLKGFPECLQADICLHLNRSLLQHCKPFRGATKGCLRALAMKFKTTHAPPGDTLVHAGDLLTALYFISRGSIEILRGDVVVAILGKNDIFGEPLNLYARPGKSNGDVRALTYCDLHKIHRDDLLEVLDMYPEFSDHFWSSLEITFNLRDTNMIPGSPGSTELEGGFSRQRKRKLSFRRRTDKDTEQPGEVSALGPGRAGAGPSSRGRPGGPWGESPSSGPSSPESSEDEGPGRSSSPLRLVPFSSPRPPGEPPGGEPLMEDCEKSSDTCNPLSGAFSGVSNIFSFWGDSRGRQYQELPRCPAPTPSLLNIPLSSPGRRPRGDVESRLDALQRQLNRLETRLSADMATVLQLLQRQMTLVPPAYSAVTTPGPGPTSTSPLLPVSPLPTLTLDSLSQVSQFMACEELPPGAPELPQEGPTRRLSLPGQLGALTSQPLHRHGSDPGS
For the compound `Cc1ccc2c(CN(C)Cc3ccc(OC(F)F)cc3)cc(=O)oc2c1C`, the “hERG current change (%, negative = inhibition) at 1uM” value worked out at 9.1%.
Then `COc1ccc(C(=O)N/N=C/c2ccc3cccc(O)c3n2)cc1`, with 0.291%; and `C/C(Cn1cnc([N+](=O)[O-])n1)=N\NC(=O)c1ccc(O)cc1O`, with 16.9%; and `Fc1ccc(NC(=S)Nc2cccnc2)c(F)c1F`, with 0.66%.
Then `c1ccc2oc(-c3ccc(Nc4nc(N5CCCCC5)nc(N5CCOCC5)n4)cc3)nc2c1`, with -2.86%; and `COc1ccc(N(CC(=O)NCc2ccco2)S(C)(=O)=O)cc1OC`, with 4.42%.
With `CC1(C)CC(=O)C=C(NCCc2ccc(S(N)(=O)=O)cc2)C1` the figure was -6.01%; with `CN(c1ccc(O)cc1)S(=O)(=O)c1ccc2ccccc2c1`, 12.7%.
Regarding `O=C(NCc1ccco1)c1cccc(Br)c1`, the “hERG current change (%, negative = inhibition) at 1uM” value is listed as 12%.
With `O=C(Oc1ccccc1)N1CCN(c2ccccc2F)CC1` the figure was 7.37%.
Regarding `O=C(COC(=O)Cc1cccs1)Nc1ccccc1`, the “hERG current change (%, negative = inhibition) at 1uM” value is reported as -9.05%.
In the case of `Cc1cc(C)n(CCC(=O)N/N=C/c2c(O)ccc3ccccc23)n1`, the “hERG current change (%, negative = inhibition) at 1uM” value is 12.3%.
With `Cn1c(CNC(=O)c2ccc3c(c2)OCO3)nnc1SCC(=O)Nc1ccc(F)cc1` the figure was 12.7%; with `COc1cccc(C(=O)Nc2ccc(Cl)c(C(F)(F)F)c2)c1`, 8.09%; with `Nc1ccc(C(=O)[O-])c(O)c1.[Na+]`, 16.8%.
With `CCOc1ccc(C(=O)CSc2nnc3ccccn23)cc1` the figure was 11.2%; with `Cc1c(NC(=O)c2ccc3c(c2)OCO3)cccc1-c1nc2ccccc2s1`, 9.04%; with `COc1ccc(OC)c(S(=O)(=O)NC2CCN(Cc3ccccc3)CC2)c1`, 6.08%.
In the case of `Cc1ccc(CS(=O)Cc2ccc(C(=O)NC3CCCCCC3)o2)cc1` (centres unmarked), the “hERG current change (%, negative = inhibition) at 1uM” value was 10.5%.
With `CCC(C)c1ccc(S(=O)(=O)N2CCN(C(C)C(=O)NC3CCCC3)CC2)cc1` (centres unmarked) the figure was 5.3%; with `CCCCC(=O)Nc1ccc(NC(=O)c2ccc([N+](=O)[O-])cc2)cc1OC`, 8.93%; with `Cc1ccccc1OCC(=O)Nc1cccc2nsnc12`, -0.503%.
`COc1ccc(N2CCN(CC(=O)Nc3nnc(-c4ccccc4)s3)CC2)cc1`: the “hERG current change (%, negative = inhibition) at 1uM” value amounted to 3.58%.
With `CC(=O)Nc1ccc(S(=O)(=O)N2CCN(CCc3ccccc3)CC2)cc1` the figure was -0.763%; with `Cc1ccc(NC(=O)CSc2ccc(-c3ccc(-n4cccn4)cc3)nn2)c(C)c1`, 8.44%.
With `CN(C(=O)COC(=O)c1ccc2c(c1)NC(=O)CS2)C1CCS(=O)(=O)C1` (centres unmarked) the figure was 29.2%; with `CN(c1ccccc1C(=O)Nc1ccc(S(=O)(=O)N2CCOCC2)cc1)S(=O)(=O)c1ccccc1`, 11.2%; with `CCOc1ccccc1CN1CCC(Oc2cccc(C(=O)NCCOC)c2)CC1`, 6.93%.
With `Cc1ccc2c(c1)c1c(c(=O)n(-c3ccccc3C)c(=O)n1CC(=O)NCC1CCCO1)n2C` (centres unmarked) the figure was 0.188%.
As for `C#CCOCCOCCOCCNc1nc(N2CCN(C(=O)[C@H]([C@@H](C)CC)n3cc([C@@H](N)CC(C)C)nn3)CC2)nc(N2CCN(C(=O)[C@H](Cc3cc4ccccc4[nH]3)n3cc([C@@H](N)Cc4ccc(O)cc4)nn3)CC2)n1.Cl`, the “hERG current change (%, negative = inhibition) at 1uM” value was determined as 11.7%.
Then `COc1ccc(OCC(O)CN(C)C(=O)/C=C/c2cccc([N+](=O)[O-])c2)cc1` (centres unmarked), with -56.7%; and `CC(=O)N1CCc2cc(C(=O)CN3CCN(c4cccc(Cl)c4)CC3)ccc21`, with 5.18%.
In the case of `O=C(CN1CCOCC1)N/N=C/C=C/c1ccccc1`, the “hERG current change (%, negative = inhibition) at 1uM” value is 4.56%.
With `CCCCc1c(C)[nH]c(=S)[nH]c1=O`, the “hERG current change (%, negative = inhibition) at 1uM” value is reported as 11.1%.
With `COC(=O)CNS(=O)(=O)c1ccc(Cc2ccc(S(=O)(=O)NCC(=O)OC)cc2)cc1` the figure was 1.55%.
Take `Cc1nc(NNC(=O)c2ccc([N+](=O)[O-])cc2)cc(-c2ccccc2)n1`: the “hERG current change (%, negative = inhibition) at 1uM” value is -3.05%.
With `Cc1noc(NS(=O)(=O)c2ccc(NC(=O)C34CCC(CC3)C4)cc2)c1C` the figure was -5.04%.
Then `COc1ccccc1NC(=O)c1nc[nH]c1C(=O)Nc1ccccc1OC`, with 22.2%; and `C=C1N(C)c2cc([N+](=O)[O-])c(N)cc2C1(C)C`, with -7.6%; and `CCSc1nnc(NC(=O)CCc2ccc(OC)cc2)s1`, with 12.6%.
Then `CCC(=O)Nc1ccc(C(=O)Nc2cccc(OC)c2)cc1`, with 4.71%; and `Cc1cccc(N(C)c2cc(C)nc3ncnn23)c1`, with 8.88%.
In the case of `CCOc1ccccc1NC(=O)c1cc2ccccc2oc1=O`, the “hERG current change (%, negative = inhibition) at 1uM” value turned out to be 19.1%.
Then `O=C(CCS(=O)(=O)c1ccc(Br)cc1)Nc1ccccn1`, with 15.2%.

These data come from publication PMC4336329 (PLoS ONE, 2015).
